Laboratory results from the supplement of paper PMC3334620.
The full ranking holds about 33,000 sequences; the median of “E-score (-0.5 to 0.5)” is about -0.056, and the highest 2% start at about 0.38. The list shows a part of the results.

Molecular target: Stb4 (UniProt P50104)
Experiment: PBM E-score (8-mer binding enrichment) (E-score (-0.5 to 0.5)); higher = stronger / more preferred TF binding; most listed sequences are background and not binding sites
Settings: protein concentration: 200 nM; construct: GST-DNA-binding domain
Description: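 Universal 'all 10-mer' protein binding microarrays (Agilent AMADID 015681) probed with GST-tagged S. cerevisiae TFs (full-length or DBD) made by in vitro transcription/translation (PURExpress), about 100-200 nM. Bound TF was detected with fluorescent anti-GST. Each ungapped 8-mer (which stands for itself and its reverse complement) is scored by the PBM enrichment score (E-score), a modified Wilcoxon-Mann-Whitney statistic from -0.5 to +0.5, computed with the Universal PBM Analysis Suite. Scale: above 0.35 generally sequence-specific binding.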

First: AGATCTTG
Second: ACTAGGAC
The “PBM E-score” value of the first is lower: -0.197 for the first, -0.0716 for the second.

First: GAAAGTGA
Second: AACCAGAA
The “PBM E-score” value of the first is lower: -0.0866 for the first, -0.0712 for the second.

First: CCGACCAC
Second: CAGAAAGC
The “PBM E-score” value of the first is higher: 0.283 for the first, -0.131 for the second.

First: GGTTTAAA
Second: ACGTCGAA
The “PBM E-score” value of the first is higher: -0.0459 for the first, -0.143 for the second.

Going from AAGTCCGT to GTGCACAA, the “PBM E-score” value falls from 0.187 to 0.0485.

Going from AGTACCGC to ATGGTCGG, the “PBM E-score” value rises from 0.0715 to 0.291.

Compared with ATTGTCTG, CTGCACTA is lower in “PBM E-score” value: -0.0452 for the first, -0.0514 for the second.

First: AGGCATAA
Second: CAATATAG
The “PBM E-score” value of the first is lower: -0.134 for the first, -0.0585 for the second.

Going from TCAAGTGA to CTACGGGC, the “PBM E-score” value rises from -0.245 to -0.0551.

First: CAATGCGC
Second: TGGGAAAA
The “PBM E-score” value of the first is higher: -0.0287 for the first, -0.158 for the second.

Compared with TCTCAGAA, AATATTGA is higher in “PBM E-score” value: -0.227 for the first, -0.0636 for the second.

Going from AAGCATTA to CTGGGGAA, the “PBM E-score” value falls from -0.0324 to -0.341.

Going from AGAACCTC to TAATTGTA, the “PBM E-score” value rises from -0.0283 to 0.126.

Going from CCGTAGCG to ATCATCAC, the “PBM E-score” value falls from 0.155 to -0.266.

First: ACACCGTA
Second: ACTTCGCA
The “PBM E-score” value of the first is higher: -0.0233 for the first, -0.156 for the second.

Going from CAGGTAGC to CCTCATCC, the “PBM E-score” value rises from -0.0418 to -0.036.

Compared with GAATTCGC, ATGCTCCA is lower in “PBM E-score” value: 0.114 for the first, -0.06 for the second.

Compared with CGACGCCG, AAAAGAGG is lower in “PBM E-score” value: 0.255 for the first, -0.165 for the second.

Going from CAATCTCG to GACGTATC, the “PBM E-score” value falls from 0.165 to -0.0654.

Going from AAGGACGA to AGGTATAC, the “PBM E-score” value rises from -0.165 to -0.111.

Compared with ACCGGGCC, ACCGACAC is higher in “PBM E-score” value: 0.214 for the first, 0.258 for the second.

Compared with GCTTTGAC, TAGTAGGA is lower in “PBM E-score” value: 0.139 for the first, -0.0566 for the second.

Compared with TCCAACAA, ACTAACAA is higher in “PBM E-score” value: -0.219 for the first, -0.174 for the second.

First: GACGTGCA
Second: CCCTACCC
The “PBM E-score” value of the first is lower: -0.075 for the first, 0.0628 for the second.

Compared with AATATTCG, AGGCCTCG is higher in “PBM E-score” value: 0.0398 for the first, 0.221 for the second.

Compared with AGATGACT, GCAAACGC is higher in “PBM E-score” value: -0.0669 for the first, 0.121 for the second.

Going from ATCGTCCC to GTTGCCGA, the “PBM E-score” value rises from 0.0198 to 0.458.

First: AAGCGTCG
Second: GACCGAGA
The “PBM E-score” value of the first is lower: -0.0902 for the first, 0.339 for the second.

Compared with AACCTCGC, CCCTCCAG is higher in “PBM E-score” value: -0.123 for the first, -0.00501 for the second.

First: CCTACGCA
Second: TAACTTGA
The “PBM E-score” value of the first is higher: -0.105 for the first, -0.244 for the second.

First: GCCATCAA
Second: CGTCTTCC
The “PBM E-score” value of the first is lower: -0.383 for the first, 0.0828 for the second.

Going from AGCCTACT to CTCCATTA, the “PBM E-score” value rises from -0.287 to -0.148.

First: AAGGTGAT
Second: CGTGCCAG
The “PBM E-score” value of the first is higher: -0.138 for the first, -0.186 for the second.

Compared with AGGCAGCA, ACCACAAA is higher in “PBM E-score” value: -0.251 for the first, 0.0353 for the second.

Going from CCTTAGAC to AATATAAT, the “PBM E-score” value rises from -0.17 to 0.00554.

Going from CCGACGAC to AACGGATG, the “PBM E-score” value falls from 0.328 to 0.304.

Compared with CGTCTACA, CTCTCATA is lower in “PBM E-score” value: -0.11 for the first, -0.16 for the second.

Going from GTTCGGTA to TGGCCGAA, the “PBM E-score” value falls from 0.425 to 0.251.

Compared with ACTTTGTG, GTTACATA is higher in “PBM E-score” value: -0.103 for the first, -0.0592 for the second.

Going from GCCTGCAC to ACGCGGGA, the “PBM E-score” value rises from -0.139 to 0.273.

First: ACCAAATA
Second: CGCCACGA
The “PBM E-score” value of the first is higher: -0.0432 for the first, -0.0773 for the second.

First: AGTCGCTC
Second: ATCTGAAC
The “PBM E-score” value of the first is lower: -0.202 for the first, -0.0451 for the second.

Compared with ACTTCTGG, CAGCATTC is higher in “PBM E-score” value: -0.253 for the first, -0.153 for the second.

Compared with CATGACAC, CGATGCTA is higher in “PBM E-score” value: -0.119 for the first, 0.0421 for the second.

Compared with CCCTAAGC, CAGGGTGA is higher in “PBM E-score” value: -0.18 for the first, -0.0321 for the second.

Compared with CGTGCGCA, CCAACATA is higher in “PBM E-score” value: -0.0108 for the first, 0.0764 for the second.

Going from CAAGTCTG to AACTATCT, the “PBM E-score” value rises from -0.246 to -0.0847.
